Experimental data published in publication PMC3751744.
These are yes or no findings as the source states them, for the method shown. In cells and extracts the contact can be indirect. Tags and fused reporters may be left off the sequences shown. Blank lines part the entries; values can stand above or below the binder they belong to.

By UniProt entry, the sequences of proteins in these tests, tags left out.
UniProt P49789: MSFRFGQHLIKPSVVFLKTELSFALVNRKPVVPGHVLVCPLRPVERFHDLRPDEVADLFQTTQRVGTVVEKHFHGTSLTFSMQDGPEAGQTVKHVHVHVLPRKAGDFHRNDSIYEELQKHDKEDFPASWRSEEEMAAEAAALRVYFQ

Molecular target: Flag-Fhit (human) (UniProt P49789)
Assay: co-IP; HEK293 cells co-transfected, cross-linked with 0.5 mM DSP, lysed in RIPA buffer; lysates with anti-Flag affinity agarose gel at 4°C for 4 h; Western blot; Src, HA-Gγ2 or untagged Fhit co-expressed in some samples

binding: no binding
B1: HA-RGS16 (protein, UniProt O15492 1-202)
chain: MCRTLAAFPTTCLERAKEFKTRLGIFLHKSELGCDTGSTGKFEWGSKHSKENRNFSEDVLGWRESFDLLLSSKNGVAAFHAFLKTEFSEENLEFWLACEEFKKIRSATKLASRAHQIFEEFICSEAPKEVNIDHETHELTRMNLQTATATCFDAAQGKTRTLMEKDSYPRFLKSPAYRDLAAQASAASATLSSCSLDEPSHT

binding: no binding
B2: HA-RGS19 (protein, UniProt P49795 1-217)
chain: MPTPHEAEKQITGPEEADRPPSMSSHDTASPAAPSRNPCCLCWCCCCSCSWNQERRRAWQASRESKLQPLPSCEVCATPSPEEVQSWAQSFDKLMHSPAGRSVFRAFLRTEYSEENMLFWLACEELKAEANQHVVDEKARLIYEDYVSILSPKEVSLDSRVREGINKKMQEPSAHTFDDAQLQIYTLMHRDSYPRFLSSPTYRALLLQGPSQSSSEA
